Measurements reported in PubChem BioAssay AID686978 (National Center for Advancing Translational Sciences (NCATS), 2013).
In all, about 420,000 compounds went through this assay and about 64,000 (15%) were called active. Inconclusive means that the source gave no clear call. Such entries were picked first, then a sample of the others. The call rests on the fitted dose curve; in most records, active means well fitted inhibition curve with a large enough effect; inconclusive means small, poorly fitted or top-dose-only effect; inactive means flat fitted curve, though single readings scatter. No potency is given beside an inconclusive call; the fits are too rough.
On the % scale 0 is the no-effect control and ±100 the full control effect; potency means the concentration at half of the fitted maximal effect; tags describe the fitted curve by direction and shape.

Assay: qHTS for Inhibitors of human tyrosyl-DNA phosphodiesterase 1 (TDP1): qHTS in cells in absence of CPT; further: nearly all actives have a fitted effect of over 55% in size
Details: DT40 Tdp1-/- hTDP1 cells, no CPT, ATP luminescence, 48 h; activity change, negative = growth inhibition: at 46.2 µM (top of the series) unless noted
In short: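 A cellular qHTS used chicken DT40 cells lacking endogenous Tdp1 but carrying stably transfected human TDP1. Compounds were applied without camptothecin, and cell growth kinetics were judged by ATP-dependent luminescence after ≥48 hr.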
In the case of `O=c1c2cc(Cl)cc(Cl)c2nc(CN2CCOCC2)n1-c1ccccc1F`, the Potency is reported as “inactive”. With `CCCc1c(C)nc(SCC(=O)C(C)(C)C)nc1OC(=O)N(C)C` the activity change, negative = growth inhibition was inconclusive: -31.9% [inhibitor]. For `Cn1c(=O)c2c(-c3ccccc3)n3c(c2n(C)c1=O)C(c1cc(Cl)ccc1O)Nc1ccccc1-3` (stereo unspecified), the Potency was active: 14.6 µM. In the case of `Cc1cccc(N2C(=O)NC(=O)/C(=C/c3ccc([N+](=O)[O-])o3)C2=O)c1`, the Potency is reported as inconclusive [inhibitor, single point]. With `CCOC(=O)[C@]12Cc3c(cc(OC)c(OC)c3OC)[C@H]1N(CCC(=O)OC)C(=O)c1ccccc12` the Potency was active: 16.4 µM. In the case of `CC(C)OC1CCCC(O)C1CC(=O)O` (stereo unspecified), the Potency is reported as “inactive”. For `CSc1ccc(CN2CCN(C(=O)COc3cccc(C)c3)CC2)cc1`, the Potency was active: 20.6 µM. In the case of `O=C(NN1C(=O)C2C3C=CC(C4CC34)C2C1=O)c1cccc(Br)c1` (stereo unspecified), the Potency is reported as inconclusive [inhibitor, full curve]. For `COc1ccccc1NC(=O)COC(=O)c1cc(C)n(C2CC2)c1C`, the Potency was inconclusive [inhibitor, single point]. In the case of `O=c1[nH]c(=O)n(-c2ccccc2F)c(O)c1/C=C1\C=Nc2ccccc21`, the Potency is reported as active: 20.6 µM. With `NCCNc1ccc([N+](=O)[O-])c2cccnc12` the Potency was active: 20.6 µM. For `CCOP(=S)(OCC)Oc1cc(C)oc(=O)c1Cl`, the Potency was inconclusive [inhibitor, single point]. For `COc1ccc(OC)c(CNCCc2ccc(OC)c(OC)c2)c1`, the Potency was “inactive”. In the case of `ON1C2CCCCC2N(O)C1c1ccccc1F` (stereo unspecified), the Potency is reported as “inactive”. In the case of `O=S(=O)(O)C(=Cc1ccccc1)c1ccccc1` (tested in a mixture with another compound), the Potency is reported as “inactive”. With `Fc1cccc(-c2ccc3c(c2)CN(C(=S)NCCc2ccccc2)Cc2cnnn2-3)c1` the Potency was inconclusive [inhibitor, single point]. For `Cn1cccc1/C=C1\C(=O)NC(=O)N(CCC2=CCCCC2)C1=O`, the Potency was active: 13 µM. For `Cn1cccc1CNCCc1ccccc1F`, the Potency was “inactive”. For `NC(Cc1ccc(Cl)cc1)c1csc(Nc2ccccn2)n1` (stereo unspecified), the Potency was active: 13 µM. In the case of `CCOC(=O)C1(CCCc2ccccc2)CCN(C2CCCC2)CC1`, the Potency is reported as inconclusive [inhibitor, single point]. With `COP(=O)(OC)c1nc(-c2cccc3ccccc23)oc1NCCc1ccccc1` the Potency was inconclusive [inhibitor, single point]. With `COc1ccc(CCNC(=O)c2cnc3sc(N4CCCCCC4)nn3c2=O)cc1` the Potency was active: 9.2 µM. In the case of `Cc1ccc(C)c(NS(=O)(=O)c2ccc(OCC(=O)NCc3cccnc3)cc2)c1`, the Potency is reported as “inactive”. For `OC(CC#CCN1CCCCCC1)(c1ccccc1)C1CCCC1` (stereo unspecified), the Potency was inconclusive [inhibitor, single point]. With `COC(=O)C1=C(c2ccc(-c3ccccc3)c(F)c2)C[C@@H]2CC[C@H]1N2C(=O)NCCOc1ccccc1Cl` the Potency was inconclusive [inhibitor, single point]. For `CCOc1ccc(N=Cc2c(O)n(CCc3ccc(OC)c(OC)c3)c(=O)[nH]c2=O)cc1`, the Potency was active: 16.4 µM. With `CCOC(=O)C1=C(N)OC2=C(C(=O)CCC2)C12C(=O)N1c3c(ccc(C)c32)C(C)=CC1(C)C` (stereo unspecified) the Potency was inconclusive [inhibitor, single point]. For `COc1ccc(C2=CC(c3ccc(OC)c(OC)c3)c3c(c4ccccc4oc3=O)O2)cc1OC` (stereo unspecified), the Potency was inconclusive [inhibitor, single point]. With `C#C[C@]1(O)CCC2C3CC=C4C[C@H](O)CC[C@]4(C)C3CC[C@@]21C` (stereo partly specified) the Potency was inconclusive [inhibitor, partial curve]. With `C[C@]12CCC(=O)C=C1CC[C@@H]1[C@@H]2C(=O)C[C@]2(C)C(=O)CC[C@@H]12` the Potency was “inactive”. For `Cl.Cl.Cl.Cl.Cl.Cl.N.N.N.N.NNNNN.NNNNN.O.O.[Ru].[Ru].[Ru]`, the Potency was inconclusive [inhibitor, partial curve, poor fit]. In the case of `CN1CCCCC1c1cccnc1` (stereo unspecified), the Potency is reported as “inactive”. With `C[C@]12C=CC(=O)C=C1C=C[C@@H]1C2CC[C@]2(C)C(=O)CCC12` (stereo partly specified) the Potency was inconclusive [inhibitor, single point]. For `CCn1ccnc1CN1CCCC(C(=O)c2ccc(OC)cc2OC)C1` (stereo unspecified), the Potency was inconclusive [inhibitor, partial curve]. With `COc1ccc(NC(=O)c2ccc(COCC(F)(F)C(F)F)cc2)cc1` the Potency was inconclusive [inhibitor, partial curve, poor fit]. In the case of `CC[C@H]1CN2CCC1C[C@@H]2[C@@H](O)c1ccnc2ccc(OC)cc12` (stereo partly specified), the Potency is reported as inconclusive [inhibitor, full curve]. For `Cn1c(O)c(C(c2ccccn2)c2c(O)n(C)c(=S)[nH]c2=O)c(=O)[nH]c1=S`, the Potency was “inactive”. In the case of `COc1cccc(C(=O)Nc2ccc(-c3cc(C(F)(F)F)nn3-c3ccccc3)cc2)c1`, the Potency is reported as inconclusive [inhibitor, single point]. For `COc1ccc(C(c2nnnn2Cc2ccccc2)N2CCC3(CC2)C(=O)NCN3c2ccccc2)cc1` (stereo unspecified), the Potency was inconclusive [inhibitor, single point]. For `COc1nc(NC2CCCCC2)nc(NC(C)(C)C)n1`, the Potency was active: 11.6 µM. For `Cc1ccc(-c2c(C)n3c4c(=O)n(C)c(=O)n(C)c4nc3n2CCO)cc1`, the Potency was active: 0.184 µM. With `COC(=O)C1=C(c2ccc(OC(F)(F)F)cc2)C[C@@H]2CC[C@H]1N2C(=O)N1CCC(C)CC1` the Potency was active: 5.8 µM. For `COc1ccc(NC(=O)c2cn(CCC#N)nc2-c2ccc([N+](=O)[O-])cc2)cc1`, the Potency was “inactive”. For `COc1cc2c(c(OC)c1O)-c1ccc(OC)c(=O)cc1C(NC(=O)C(F)(F)F)CC2` (stereo unspecified), the Potency was active: 0.164 µM. With `CCOc1ccccc1CN(CCc1ccc2c(c1)OCO2)Cc1ccc(CC)cc1` the Potency was inconclusive [inhibitor, single point]. With `CCCOc1ccccc1NP(=O)(Oc1ccccc1)Oc1ccccc1` the Potency was inconclusive [inhibitor, single point].
